# Measurements as given in the supplement of paper PMC8728848.
# This is one part of the list.
# B1: PX14379A-bvu-539-28-539 (Bacteroides vulgatus) (protein)
# chain: EPYSEIIEEDYVPTEADEIALLATTYSQLRFVMDWYGLFDLQEESGDVIVTPTRPNGWDDGGTYKQMHKHTWDNQQGQPQSIWDYCYKGIANANKILKRADEGFFTEESKPKVVAEVKGVRALWYSILCDTHGNIPIQTSFSEEVPVQSTRKQVFDFIINELKEVMPNLPTEVNKSTYGRLTQWGAKCLMARMYLNAGVYTGTPMWNECLEQCNDIINSGLFSLETNYTDIFKTENSGCVETIFAIPYDEVYNEGDNNGPVFGAHMKFLSSNSRKVFNMQTTPWGGSAANPQFINSYDPDDMRLKYTWLQGDQYSPDGVLITTFPNKLPSIYKTDTDDGYRVGKYEIKVGAKSLLSNDFPYFRYTEVLLMKAECLLRLGQNETEAAHIVSQIRERAFRESAHPEKATVDAAWLKGDTHINYGTLDEKGQIDDAGNTEVVELGGLYDEWGWEFAAEARRRTDMIRFGTYQKKSWFNHTPTANDLNGNSILFPIHLDHLNTNPNLQQNPGYAGK
# Legend:
# Test in all cases: glycan array binding signal (z-score within array); higher = stronger binding
# Conditions in all cases: glycan notation: IUPAC condensed, linker removed
# [1] = target: Man(a1-2)Man(a1-3)[Man(a1-2)Man(a1-6)]Man(a1-6)[Man(a1-2)Man(a1-2)Man(a1-3)]Man
# Method in brief: (§1)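 The binding signal is a Z-score computed within each array. Data were drawn from 3228 arrays in the Consortium for Functional Glycomics database, restricted to those with a known protein sequence. Scores were averaged over arrays of the same protein sequence at different concentrations or buffers, and over linkers, and negative values can be taken as non-binding.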
# [2] = target: Man(a1-2)Man(a1-3)[Man(a1-2)Man(a1-6)]Man(a1-6)[Man(a1-2)Man(a1-2)Man(a1-3)]Man(b1-4)GlcNAc(b1-4)GlcNAc
# Method in brief: as §1
# [3] = target: Man(a1-2)Man(a1-3)[Man(a1-6)]Man(a1-6)[Man(a1-2)Man(a1-3)]Man(b1-4)GlcNAc(b1-4)GlcNAc
# Method in brief: as §1
# [4] = target: Man(a1-2)Man(a1-6)[Man(a1-3)]Man(a1-6)[Man(a1-2)Man(a1-2)Man(a1-3)]Man
# Method in brief: as §1
# [5] = target: Man(a1-2)Man(a1-6)[Man(a1-3)]Man(a1-6)[Man(a1-2)Man(a1-2)Man(a1-3)]Man(b1-4)GlcNAc(b1-4)GlcNAc
# Method in brief: as §1
# [6] = target: Man(a1-3)[Man(a1-6)]Man
# Method in brief: as §1
# [7] = target: Man(a1-3)[Man(a1-6)]Man(a1-6)[Man(a1-2)Man(a1-3)]Man(b1-4)GlcNAc(b1-4)GlcNAc
# Method in brief: as §1
# [8] = target: Man(a1-3)[Man(a1-6)]Man(a1-6)[Man(a1-3)]Man
# Method in brief: as §1
# [9] = target: Man(a1-3)[Man(a1-6)]Man(a1-6)[Man(a1-3)]Man(b1-4)GlcNAc(b1-4)GlcNAc
# Method in brief: as §1
# [10] = target: Man(a1-3)[Man(a1-6)]Man(b1-4)GlcNAc(b1-4)GlcNAc
# Method in brief: as §1
# [11] = target: Man(a1-3)[Man(a1-6)]Man(b1-4)GlcNAc(b1-4)[Fuc(a1-6)]GlcNAc
# Method in brief: as §1
# [12] = target: Man(a1-6)Man
# Method in brief: as §1
# [13] = target: Man(b1-4)GlcNAc
# Method in brief: as §1
# [14] = target: MurNAc(b1-4)GlcNAc
# Method in brief: as §1
# [15] = target: Neu5Ac(a2-3)Gal
# Method in brief: as §1
# [16] = target: Neu5Ac(a2-3)Gal(b1-3)GalNAc
# Method in brief: as §1
# [17] = target: Neu5Ac(a2-3)Gal(b1-3)GalNAc(b1-3)Gal(a1-4)Gal(b1-4)Glc
# Method in brief: as §1
# [18] = target: Neu5Ac(a2-3)Gal(b1-3)GalNAc(b1-4)[Neu5Ac(a2-3)]Gal(b1-4)Glc
# Method in brief: as §1
# [19] = target: Neu5Ac(a2-3)Gal(b1-3)GalNAc(b1-4)[Neu5Ac(a2-8)Neu5Ac(a2-3)]Gal(b1-4)Glc
# Method in brief: as §1
# [20] = target: Neu5Ac(a2-3)Gal(b1-3)GalNAc6S
# Method in brief: as §1
# [21] = target: Neu5Ac(a2-3)Gal(b1-3)GlcNAc
# Method in brief: as §1
# [22] = target: Neu5Ac(a2-3)Gal(b1-3)GlcNAc(b1-2)Man
# Method in brief: as §1
# [23] = target: Neu5Ac(a2-3)Gal(b1-3)GlcNAc(b1-2)Man(a1-3)[GlcNAc(b1-4)][Neu5Ac(a2-3)Gal(b1-3)GlcNAc(b1-2)Man(a1-6)]Man(b1-4)GlcNAc(b1-4)GlcNAc
# Method in brief: as §1
# [24] = target: Neu5Ac(a2-3)Gal(b1-3)GlcNAc(b1-2)Man(a1-3)[Neu5Ac(a2-3)Gal(b1-3)GlcNAc(b1-2)Man(a1-6)]Man(b1-4)GlcNAc(b1-4)GlcNAc
# Method in brief: as §1
# [25] = target: Neu5Ac(a2-3)Gal(b1-3)GlcNAc(b1-3)Gal(b1-3)GlcNAc
# Method in brief: as §1
# [26] = target: Neu5Ac(a2-3)Gal(b1-3)GlcNAc(b1-3)Gal(b1-4)GlcNAc
# Method in brief: as §1
# [27] = target: Neu5Ac(a2-3)Gal(b1-3)GlcNAc(b1-3)GalNAc
# Method in brief: as §1
# [28] = target: Neu5Ac(a2-3)Gal(b1-3)GlcNAc(b1-4)Gal(b1-4)Glc
# Method in brief: as §1
# [29] = target: Neu5Ac(a2-3)Gal(b1-3)GlcNAc(b1-6)GalNAc
# Method in brief: as §1
# [30] = target: Neu5Ac(a2-3)Gal(b1-3)GlcNAc6S
# Method in brief: as §1
# [31] = target: Neu5Ac(a2-3)Gal(b1-3)[Fuc(a1-4)]GlcNAc
# Method in brief: as §1
# [32] = target: Neu5Ac(a2-3)Gal(b1-3)[Fuc(a1-4)]GlcNAc(b1-3)Gal(b1-3)[Fuc(a1-4)]GlcNAc
# Method in brief: as §1
# [33] = target: Neu5Ac(a2-3)Gal(b1-3)[Fuc(a1-4)]GlcNAc(b1-3)Gal(b1-4)[Fuc(a1-3)]GlcNAc
# Method in brief: as §1
# [34] = target: Neu5Ac(a2-3)Gal(b1-3)[GlcNAc(b1-6)]GalNAc
# Method in brief: as §1
# [35] = target: Neu5Ac(a2-3)Gal(b1-3)[Neu5Ac(a2-6)]GalNAc
# Method in brief: as §1
# [36] = target: Neu5Ac(a2-3)Gal(b1-3)[Neu5Ac(a2-6)]GlcNAc(b1-3)[Fuc(a1-3)[Gal(b1-4)]GlcNAc(b1-6)]Gal(b1-4)Glc
# Method in brief: as §1
# [37] = target: Neu5Ac(a2-3)Gal(b1-3)]Neu5Ac(a2-3)Gal(b1-4)]GlcNAc
# Method in brief: as §1
binder,measurement,setting,value
B1,glycan array binding signal (z-score),[1],-0.294
same,glycan array binding signal (z-score),[2],-0.272
same,glycan array binding signal (z-score),[3],-0.379
same,glycan array binding signal (z-score),[4],-0.405
same,glycan array binding signal (z-score),[5],-0.361
same,glycan array binding signal (z-score),[6],0.057
same,glycan array binding signal (z-score),[7],-0.093
same,glycan array binding signal (z-score),[8],0.788
same,glycan array binding signal (z-score),[9],-0.172
same,glycan array binding signal (z-score),[10],-0.355
same,glycan array binding signal (z-score),[11],-0.375
same,glycan array binding signal (z-score),[12],-0.293
same,glycan array binding signal (z-score),[13],-0.085
same,glycan array binding signal (z-score),[14],-0.459
same,glycan array binding signal (z-score),[15],-0.355
same,glycan array binding signal (z-score),[16],-0.25
same,glycan array binding signal (z-score),[17],-0.366
same,glycan array binding signal (z-score),[18],-0.068
same,glycan array binding signal (z-score),[19],-0.367
same,glycan array binding signal (z-score),[20],-0.441
same,glycan array binding signal (z-score),[21],-0.439
same,glycan array binding signal (z-score),[22],-0.425
same,glycan array binding signal (z-score),[23],-0.214
same,glycan array binding signal (z-score),[24],-0.248
same,glycan array binding signal (z-score),[25],-0.491
same,glycan array binding signal (z-score),[26],-0.23
same,glycan array binding signal (z-score),[27],-0.303
same,glycan array binding signal (z-score),[28],-0.389
same,glycan array binding signal (z-score),[29],-0.342
same,glycan array binding signal (z-score),[30],-0.108
same,glycan array binding signal (z-score),[31],-0.179
same,glycan array binding signal (z-score),[32],0.035
same,glycan array binding signal (z-score),[33],-0.182
same,glycan array binding signal (z-score),[34],-0.396
same,glycan array binding signal (z-score),[35],-0.423
same,glycan array binding signal (z-score),[36],-0.134
same,glycan array binding signal (z-score),[37],-0.124
